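The compound was tested at five concentrations on cells cultured in 96-well plates, with a 48-hour exposure period. Here, GI50 denotes the concentration required for 50% inhibition of growth. TGI marks complete inhibition of growth.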
system: NCI-H322M lung; test: NCI-60 cell line screen, 48 h

Structure (SMILES) | GI50 [µM] | TGI [µM]
Cc1nn2c(/C=N/N=C(N)N)c(-c3ccc(Cl)c([N+](=O)[O-])c3)nc2s1 | 2.15 | 3.91
NS(=O)(=O)c1cc2c(cc1Cl)NC(/C(=N/NC(=O)c1ccncc1)C1C(=O)NC(=O)NC1=O)=NS2(=O)=O | – | > 100
C=C(C)c1cc(C(C)(C)C)cc(C(=C)C)c1S(C)(=O)=O | – | > 100
Cc1ccc(S(=O)(=O)C(CC(NC=O)S(=O)(=O)c2ccc(C)cc2)NC=O)cc1 (stereo not given) | – | > 100
Cc1ccc(CN(C)c2ccc(CO)c(Cl)c2)cc1 | 9.49 | 59.7
CCOC(=O)/C(C#N)=C\C=C(\Sc1nc2ccccc2s1)c1ccc(Cl)cc1 | 86 | > 100
COc1cc(-c2nc3ccc(N4CCN(C)CC4)cc3[nH]2)c(OC)c2[nH]c(CO)nc12 | – | > 100
Cn1ccc2c1SSSSS2 | 51.3 | > 100
Cc1cc2cn3c4ccc(O)cc4nc(N)c3c2cc1C | 0.783 | 4.9
C=[CH][Sn]([CH]=C)([S]c1cccc2cccnc12)[S]c1cccc2cccnc12 | 0.184 | 0.416
OC(CC(CC(O)(C(F)(F)F)C(F)(F)F)=NN=C(CC(O)(C(F)(F)F)C(F)(F)F)CC(O)(C(F)(F)F)C(F)(F)F)(C(F)(F)F)C(F)(F)F | – | > 10
CC(=O)/C=c1\[nH]/c(=C\C=C\c2ccccc2)c(=O)n1/C=C1\C(=O)Oc2ccccc2C1=O | – | > 100
COC(=O)C1[C@@H](C(=O)OC)C(=O)O[C@H]1c1cc(OC)c(OC)c(OC)c1 (stereo not given in full) | – | > 100
CCn1c2ccccc2c2cc(N=Nc3ccc(C#N)cc3)ccc21 | – | > 100
CC(=O)OCC(OC(C)=O)C(OC(C)=O)C(OC(C)=O)C(=O)CNn1c(-c2ccc(C)cc2)nc2ccccc2c1=O (stereo not given) | – | > 100
O=C1C(Cl)C2(CC(/C=C/c3cccs3)=NN2c2cccc(S(=O)(=O)O)c2)N1c1nc2ccccc2s1 (stereo not given) | – | > 100
O=C1OCCC1(Cc1ccc(Cl)cc1)Cc1ccc(Cl)cc1 | – | > 100
Cn1c(-c2ccccc2)cc(-c2cccs2)c1-c1ccsc1 | – | > 100
CCCCCCCCCCCC[C@@H](O)[C@H]1CC[C@H]([C@H]2CC[C@H]([C@H](O)CC[C@H](O)CCCCCCCC3=C[C@H](C)OC3=O)O2)O1 | – | 5.48
CC(=O)Oc1cc(C(C)C)c(OCCN(C)C)cc1C | > 100 | > 100

Structure (SMILES) | GI50 [µM] | TGI [µM]
Fc1cccc(C2SCC3=Nc4ccccc4CN32)c1 (stereo not given) | – | > 100
CC(C)NC(C)C(C)c1ccccc1 (stereo not given) | – | > 100
Cc1cc(N(CCC#N)CCC#N)ccc1/C=N/NC(=O)c1ccccc1 | – | > 100
CC(C)Oc1ccc(-c2nn([C@@H](C)c3oc4ccc(F)cc4c(=O)c3-c3cccc(F)c3)c3ncnc(N)c23)cc1F | > 100 | > 100
CCC1OC(=O)CC(O)C(C)C(OC2OC(C)C(O)C(N(C)C)C2O)C(CC=O)CC(C)C(=O)/C=C/C2(C)OC2C1C (stereo not given) | – | 66.8
O=S(=O)(O)c1cc(S(=O)(=O)O)c2c(Nc3ccnc4ccccc34)ccc(S(=O)(=O)O)c2c1 | – | > 100
Cn1c(-c2ccncc2)c(-c2ccc(F)cc2)c2ncccc21 | > 25 | > 25
CCCCCCN1CCc2c(C)c(C#N)c3nc4ccccc4n3c21 | – | > 100
O=C(c1ccccc1)c1ccc2cccc(OC3OC(CO)C(O)C(O)C3O)c2n1 (stereo not given) | – | > 100
C[C@]12CCC(N3CCCC3)CC1=CC[C@@H]1[C@@H]2CC[C@]2(C)C(O)[C@H](n3ccnc3)C[C@@H]12 (stereo not given in full) | – | > 100
C=CCCCCNC(=O)C[C@@H]1C2=C(CC[C@H]1O[Si](C)(C)C(C)(C)C)N1C(=O)CCC/C=C\C1C2 (stereo not given in full) | – | 29.8
CCc1ccc(C(=O)/C=C/C23c4ccccc4C(c4ccccc42)C2C(=O)NC(=O)C23)cc1 (stereo not given) | 1.67 | 3.58
CCC(N)(C(=O)O)C(C)C (stereo not given) | – | > 100
O=C1C2c3[nH]c4ccccc4c3C3CCCCC3C2C(=O)N1c1ccccc1 (stereo not given) | – | > 100
COC(=O)[C@@]12CN(C)[C@@H](C(C)(C)C)N1C(=O)OC2c1ccccc1 (stereo not given in full) | – | > 100
O=c1c2cc(I)ccc2nc(Sc2ccc([N+](=O)[O-])cc2[N+](=O)[O-])n1Cc1ccccc1 | – | 24.2
O=C(Nc1nnc(-c2ccc(Cl)cc2)o1)C(SC(=S)N1CCCCC1)c1ccccc1 (stereo not given) | – | > 100
NCCCCCn1c2c(c3ccccc3c1=O)C(=O)c1ccccc1-2 | 1.55 | 6.58
COC1O[C@@H]2COC(C)(C)O[C@@H]2C(=O)N1Nc1ccc([N+](=O)[O-])cc1 (stereo not given in full) | – | > 100

Reference: PubChem BioAssay (NCI)
